# Measured values from publication PMC6212790.
# Some of the results follow. At the low end of the ranking, values are background and their order means little.
# Target: T1, GST-Rok (full length) (UniProt O34857)
# T1 sequence: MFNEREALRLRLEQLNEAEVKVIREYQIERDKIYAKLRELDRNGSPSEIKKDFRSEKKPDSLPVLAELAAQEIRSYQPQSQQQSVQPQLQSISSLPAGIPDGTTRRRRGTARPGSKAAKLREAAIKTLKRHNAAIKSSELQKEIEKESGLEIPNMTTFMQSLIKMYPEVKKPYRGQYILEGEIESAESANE
# Assay: protein binding microarray;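 further: rank score from −0.5 (least bound) to 0.5 (best bound)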
# Settings: Rok is a gene silencer of Bacillus subtilis; high values mean tight binding; most listed sequences are background and not binding sites; double strand, one strand shown
row,Sequence,binding signal [E-score]
1,TAGTTGAA,0.274
2,AACAACTA,0.292
3,GAACTTAA,0.0294
4,AGGGCCTC,-0.24
5,GGTACCTA,0.273
6,TTATACAA,0.294
7,AAGAGTGG,-0.136
8,GGTTGTAA,0.259
9,AAAAAGTA,0.109
10,GGTACGGA,-0.0669
11,AAAAAATA,0.314
12,CATGCCCC,-0.242
13,ACACCTCA,0.0702
14,GTGCAGCA,0.00937
15,ACTCGGAA,-0.0267
16,AAAGTCAT,0.0668
17,CATTCTTC,0.0507
18,AAACCTCA,-0.0427
19,GGATAGCA,0.0206
20,AAAAGAGC,-0.143
21,CAGCAACG,-0.0411
22,AGCTAGCG,0.0925
23,CGAACCAC,-0.0362
24,ATGCGCTA,0.223
25,ACACCATC,0.0312

row,Sequence,binding signal [E-score]
1,ATCGATAA,0.332
2,CTGAAATC,0.0357
3,ATGATAGG,0.0932
4,ACAGGCTA,0.0256
5,CTATCGCA,0.0969
6,ACGTGACT,0.0761
7,ATCCGCCC,-0.206
8,GCGTTATA,0.0986
9,ACAATAGC,0.216
10,CTACGATC,0.218
11,ATATAGGC,-0.0417
12,ACTTTAAC,0.187
13,TAACCTCA,-0.0607
14,CGTTTTCC,0.186
15,CCAAAGTA,0.125
16,ACATGAGC,0.0934
17,CCTGCTCC,-0.398
18,AGTCGGAC,-0.171
19,ATTACCAC,0.215
20,ATCCCCTA,-0.186
21,CAGGCAGG,-0.265
22,AGACCCGA,-0.29
23,GACTAGCA,0.0279
24,AGACCACG,-0.186
25,ATCGTAGG,0.0847

row,Sequence,binding signal [E-score]
1,GACAGCGA,-0.145
2,GACCTTGC,-0.0802
3,AGAATGAC,0.0719
4,GGAAGTAA,0.139
5,AGTTGCCA,0.0433
6,AGTCGGAA,-0.199
7,AGAACGTG,0.00451
8,GCGGTGCA,-0.113
9,GCATCTCC,-0.0641
10,AAGGAGGC,-0.222
11,AGGTTATG,-0.0904
12,AGTAGTTG,0.388
13,AACTTCCC,-0.222
14,ACCACAAG,-0.065
15,CGCTAAAA,0.0848
16,AGTCCGCA,0.101
17,ATAAGATC,0.228
18,AACTTTGT,-0.0143
19,ACCAATTA,0.0426
20,CTATATAC,0.341
21,ATCCCTTA,-0.0767
22,CTCGCCGA,-0.251
23,CACGACCC,-0.198
24,ACTGGGTG,-0.0702
25,GGCTGGAC,-0.174

row,Sequence,binding signal [E-score]
1,CATACTCG,-0.0403
2,CACATGAA,0.161
3,GCGCTACA,0.145
4,CATGAATG,0.161
5,CAGCCCAG,-0.285
6,AAACATAC,0.26
7,GAAAAGCC,-0.0461
8,GGACAAAC,0.0397
9,AACTCCTA,0.0713
10,AGCAGAGC,-0.0973
11,CGAGATCA,-0.0469
12,AATTCGAA,0.331
13,GTGGGTGA,0.0102
14,CGAACACA,0.0244
15,GAGCTCGC,-0.257
16,AACACCCC,-0.208
17,ATACTAAT,0.378
18,ACATAGCA,0.0842
19,GCCGAACC,-0.135
20,ATCCCCCG,-0.302
21,CGATAGCG,-0.202
22,CCCGGGGA,-0.378
23,AAGCTAGC,0.137
24,ATCACCTC,0.0286
25,GTTTAAGA,-0.0168

row,Sequence,binding signal [E-score]
1,ATTGTCCA,-0.000301
2,CTTCGGTA,0.14
3,GCTCTCCA,-0.332
4,ACCTCCAG,-0.192
5,ATGCCAGG,-0.134
6,ACCGGGGC,-0.354
7,ATCACGGA,-0.0814
8,CGACCAAG,0.113
9,CAAAATTG,0.274
10,AAATCCGA,-0.0125
11,GCTGCAAC,-0.035
12,AGATAACT,0.126
13,AGTCAATC,0.0284
14,GTAGCAAA,0.199
15,AGTGCCTA,-0.0367
16,ATGCAATA,0.112
17,ATTCAATG,0.0514
18,AAATAGAC,0.0132
19,ATTAGGGA,-0.0389
20,TATCGCAA,0.0914
21,TCTATCCA,-0.0569
22,AACAGGTT,-0.0373
23,TAAAAGTA,0.256
24,AAGAGGCT,-0.304
25,CAAAGGGG,-0.293

row,Sequence,binding signal [E-score]
1,ATCACATC,0.105
2,TCTTAACA,0.0349
3,CGCTCTAA,0.0649
4,AAGCCAAA,-0.0526
5,AGATTGCT,-0.0426
6,CTTGGATA,-0.0642
7,GTTGAACA,-0.0917
8,AACTCGCT,-0.0547
9,GTATCCAC,0.0386
10,CCTAGCGA,-0.111
11,ACTTCCAG,0.0918
12,ATATAGAC,0.0949
13,AGTAATAT,0.402
14,ACACTAGT,0.32
15,CCACGAGG,-0.297
16,ACACCCAC,-0.00415
17,GGGCCTTA,-0.25
18,TATTCTAA,0.187
19,CAGCTCAG,-0.202
20,ACCCTAGT,0.155
21,GGGCACAC,-0.2
22,GCCGTCTA,-0.0749
23,CGGTATAG,0.119
24,CAGTAAGG,-0.0572
25,CATGCAGG,0.0103

row,Sequence,binding signal [E-score]
1,ACCCGCCG,-0.225
2,GAGGATCA,-0.196
3,CGCGATTA,0.109
4,ATACCGAA,0.097
5,ACGTATCC,0.0655
6,AAGTGAGG,-0.195
7,GGGGCCTA,-0.383
8,CGTCCCCC,-0.264
9,GGTGCTCA,-0.159
10,ATAATACG,0.349
11,CATGCTTC,-0.0582
12,AAGTTTTA,0.244
13,GCCTTGTA,-0.0817
14,ATATTTTA,0.412
15,ACCGACCC,-0.317
16,GGCCAAAC,-0.0224
17,ACTACACC,0.231
18,AACAGCCG,-0.153
19,CCAGAACG,-0.0311
20,AAAATCAT,0.215
21,GGACCTTA,-0.175
22,AAAACGGC,-0.0778
23,AGCTTGTG,-0.139
24,CTATTGGA,-0.0235
25,TCGGTAGA,0.231

row,Sequence,binding signal [E-score]
1,CAAGATGG,-0.0564
2,AAAGGATA,0.12
3,ATCGAGCA,-0.0567
4,AACAAGGT,0.0919
5,CGACCTCG,-0.115
6,CCATGAAG,-0.169
7,ATCGCAGG,-0.191
8,CAAAAGTC,-0.12
9,TCATCCCA,0.0226
10,CTACTAGA,0.32
11,ACCAGGCA,-0.311
12,ACTGTTTA,0.211
13,CTACATTC,0.176
14,ACCCTGTC,-0.0851
15,CTAATTTC,0.162
16,CTAAACGC,0.0619
17,ACACGAAG,-0.175
18,CGGGCAGC,-0.142
19,AAACAAGT,-0.075
20,AGCTGCTA,-0.0649
21,CGCCTAAC,-0.198
22,AGATCCGG,0.0294
23,GAGCTAAC,0.0297
24,CTTTGCGA,-0.257
25,AAAGGATC,-0.0686

row,Sequence,binding signal [E-score]
1,GATGCACC,-0.00513
2,ACTGGAGG,-0.249
3,GCGACGTA,0.108
4,ATAAAAGG,0.0655
5,GAGGCAAC,-0.218
6,CGATCGCG,0.0715
7,CGCCGCGC,-0.194
8,CGGAGAGC,-0.301
9,ACATCAGC,0.165
10,AAAAAATC,-0.0765
11,CAGATGAG,-0.347
12,AGGAAACA,0.0224
13,ACTATTTG,0.254
14,ACTAGCGC,0.0437
15,TGACGTCA,0.0521
16,CCGCAACA,0.143
17,CATGGGGC,-0.232
18,CCAATCCC,-0.3
19,TATCTCCA,0.21
20,ACGAAGGA,-0.0401
21,GAATAGGA,0.0882
22,ATCGCCGG,-0.239
23,GCCGTAGC,-0.142
24,AGCTGTAT,0.0771
25,GTCGTTTA,0.0636

row,Sequence,binding signal [E-score]
1,CGTGAAGA,-0.216
2,ACAAAACG,-0.0168
3,ACTCCCCT,-0.408
4,AAAGTATT,0.241
5,GTATCCTA,0.13
6,CTCCGCAC,-0.0371
7,ATTTACCC,0.126
8,GATGCTGC,-0.165
9,GTTAATTA,0.203
10,ACGACACA,-0.00361
11,CCCCGAGA,-0.305
12,GCTTCCGA,-0.17
13,CTGGAAAG,-0.166
14,TCTTTGCA,0.0291
15,ACAACAGG,0.0538
16,AACTTTTC,-0.0564
17,GACATGAA,0.0513
18,CGTGCAGA,-0.135
19,ACAAAGAC,0.25
20,ACCCGGTG,-0.34
21,ACTCGGTC,-0.0736
22,AACGGGGA,-0.206
23,ACCAGGAC,-0.0352
24,AGGACCAC,-0.18
25,CAGGTCCC,-0.278

row,Sequence,binding signal [E-score]
1,AGCCACAG,-0.298
2,GACACTTA,0.00922
3,CGCGCACA,0.0803
4,GCCGTGCA,0.033
5,CTTTGTCA,-0.166
6,AACTTATG,0.122
7,CCACAAAG,-0.145
8,CGAGATGA,-0.131
9,CACGTGGA,-0.0497
10,AAACGCTT,-0.0899
11,AACGGAAG,-0.0939
12,GCTGAAGC,-0.214
13,AGAAAAGG,-0.202
14,ATGCTTCA,-0.0514
15,ACTCATAC,0.213
16,GGTAAGAA,0.116
17,CGAACATA,0.00704
18,AGTCCTTA,0.0442
19,GGCTCCCA,-0.297
20,ATAGTCAT,0.069
21,GCGTACAC,0.142
22,CACCTAGG,-0.199
23,GCTTACCC,-0.171
24,GGTGGACA,-0.261
25,TGCCCAAA,-0.0262

row,Sequence,binding signal [E-score]
1,ACTGCTGG,-0.164
2,ACATCTTG,0.0436
3,ACACGTAG,-0.0632
4,GAAAGCAC,-0.17
5,AAATACCT,0.278
6,CCATTGAA,-0.163
7,GACCGTAA,0.00868
8,GGCCCGAC,-0.372
9,CCCGTCGG,-0.255
10,AAGACATA,-0.0219
11,CGGAGCAA,-0.0257
12,GGAGTAAC,-0.0713
13,AGTTCCTA,0.128
14,TCGCCTAA,-0.0105
15,ATCTGACA,-0.0422
16,ATTCCCCG,-0.132
17,CTACGTTA,-0.0876
18,CGAGTACG,0.00167
19,CCCCTTGA,-0.262
20,ATCAAAAT,0.163
21,AAGCGATC,-0.145
22,GCCTTACA,0.0304
23,ATAGTACC,0.304
24,CCAAGACG,-0.105
25,ACAACAGA,-0.0483

row,Sequence,binding signal [E-score]
1,AAGATTCC,-0.109
2,ATGCAAAC,-0.019
3,CACGAGTA,0.00531
4,ACTATACT,0.26
5,AATGAGCC,-0.0748
6,CCTCTACA,0.142
7,CGTTTAGA,-0.0128
8,CACCTGGG,-0.276
9,GCACCAAC,-0.108
10,AACTACAC,0.335
11,GTGATGGA,-0.157
12,GAATTCTA,0.357
13,ACGTCTAA,-0.0183
14,CTGAGCTC,-0.252
15,AACAACAG,-0.0243
16,GGACATAC,-0.09
17,ACGCGTTA,0.123
18,AGCCCCGA,-0.261
19,CCCTTCAA,-0.213
20,CTCTCAAG,-0.267
21,AAACTCAA,0.188
22,CAGCTAGC,0.0221
23,CACATACA,0.167
24,AACCTCCG,-0.155
25,CAACAAAC,-0.0715

row,Sequence,binding signal [E-score]
1,AACTATAT,0.362
2,TCTCCCAA,-0.224
3,CTCAGTCA,-0.216
4,CACCGGAG,-0.156
5,AAGTTACT,0.144
6,AAACTCCT,-0.106
7,ACGCACGC,-0.213
8,AGTCCATA,0.0254
9,AAGCGCTT,-0.257
10,AATGATCT,0.195
11,CTAGCCTC,-0.0478
12,AAACACGC,-0.0824
13,CAAACCGC,-0.22
14,ACACTTCA,-0.0803
15,CAATTTCA,0.24
16,CGCGTTTC,-0.0512
17,CAACCAAC,0.0714
18,GTTTCCAA,0.0167
19,AATAGGTC,0.0929
